Source: US10508143 (ALETA BIOTHERAPEUTICS, dated 2019)

T1: CD20 on stable transfectant line 293-CD20 (UniProt P11836 1-297)
T1 construct: whole, on cells; also called CD20 expressing 293 cells
T1 sequence (looked up): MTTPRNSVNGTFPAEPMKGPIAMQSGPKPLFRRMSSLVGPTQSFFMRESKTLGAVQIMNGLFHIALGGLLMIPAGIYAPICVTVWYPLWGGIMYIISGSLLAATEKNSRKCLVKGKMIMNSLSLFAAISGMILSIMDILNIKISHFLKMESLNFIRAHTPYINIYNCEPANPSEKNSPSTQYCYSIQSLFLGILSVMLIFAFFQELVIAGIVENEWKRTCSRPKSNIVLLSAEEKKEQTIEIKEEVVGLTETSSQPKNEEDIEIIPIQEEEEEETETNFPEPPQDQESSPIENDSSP

B1: Her2-ECD-Panitumumab scFv (VH/VL) (scFv)
chain: [about 650 residues omitted]GGGGSGGGGSGGGGSGGGGSQVQLQESGPGDVKPSETLSLTCTVSGGSVSSGDYYWTWIRQSPGKGLEWIGHIYYSGNTNYNPSLKSRLTISIDTSKTTFSLQLSSVTGEDTAIYYCVRDRVTGAFDIWGQGTTVTVSSASTGGGGSGGGGSGGGGSGGGGSDIQMTQSPSSLEASVGDRVTITCQASQDISNYLNWYQQKPGKSPKLLIYDASNLETGVPDRFSGSGSGTDFTFTISSLQAEDEGTYFCQHFDHLPLAFGGGTKLEIKRTHHHHHH
notes: C-terminal His tag; also called construct #57; #57
B2: Her2-D4-Panitumumab scFv (VH/VL) (scFv)
chain: NRPEDECVGEGLACHQLCARGHCWGPGPTQCVNCSQFLRGQECVEECRVLQGLPREYVNARHCLPCHPECQPQNGSVTCFGPEADQCVACAHYKDPPFCVARCPSGVKPDLSY[about 40 residues omitted]GGGGSGGGGSGGGGSGGGGSQVQLQESGPGDVKPSETLSLTCTVSGGSVSSGDYYWTWIRQSPGKGLEWIGHIYYSGNTNYNPSLKSRLTISIDTSKTTFSLQLSSVTGEDTAIYYCVRDRVTGAFDIWGQGTTVTVSSASTGGGGSGGGGSGGGGSGGGGSDIQMTQSPSSLEASVGDRVTITCQASQDISNYLNWYQQKPGKSPKLLIYDASNLETGVPDRFSGSGSGTDFTFTISSLQAEDEGTYFCQHFDHLPLAFGGGTKLEIKRTHHHHHH
notes: Only domain 4 of the Her2 extracellular domain; C-terminal His tag; also called construct #58; #58
B3: CD19-D1+2-Leu16 scFv (VL/VH)-huIgGFc (Fc fusion)
chain: PEEPLVVKVEEGDNAVLQCLKGTSDGPTQQLTWSRESPLKPFLKLSLGLPGLGIHMRPLAIWLFIFNVSQQMGGFYLCQPGPPSEKAWQPGWTVNVEGSGELFRWNVSDLGGLGCGLKNRSSEGPSSPSGKLMSPKLYVWAKDRPEIWEGEPPCLPPRDSLNQSLSQDLTMAPGSTLWLSCGVPPDSVSRGPLSWTHVHPKGPKSLLSLELKDDRPARDMWVMETGLLLPRATAQDAGKYYCHRGNLTMSFHLEITARPGGGGSGGGGSGGGGSGGGGSDIELTQSPTILSASPGEKVTMTCRASSSVNYMDWYQKKPGSSPKPWIYATSNLASGVPARFSGSGSGTSYSLTISRVEAEDAATYYCQQWSFNPPTFGGGTKLEIKRGGGGSGGGGSGGGGSMAQVKLQESGAELVKPGASVKMSCKASGYTFTSYNMHWVKQTPGQGLEWIGAIYPGNGDTSYNQKFKGKATLTADKSSSTAYMQLSSLTSEDSADYYCARSNYYGSSYWFFDVWGQGTTVTVSSAAAGDPA[human IgG1 Fc with C220P (EU numbers) omitted]
notes: also called construct #84; #84

Legend:
[1] = target: T2, EGFR expressed on cells (A431 cells; 293T cells transfected with EGFR cDNA) (UniProt P00533); assay: flow cytometry on A431 cells, trastuzumab-PE
T2 construct: whole, on cells; also called EGFR-positive cell

[2] = target: T1, CD20 on stable transfectant line …; assay: flow cytometry on 293-CD20 cells, anti-huIgG-FITC

Binder	binding result [1]	binding result [2]
B1	binds	
B2	binds	
B3		no binding (tested: 200 µl fusion protein)
